Laboratory results taken from patent US20090130105A1 (Biogen, published 2009).

Biological target: T1, human IGF-1R(1-902)-His10 (human, UniProt P08069 31-932)
T1 construct: Bought from R&D Systems (305-GR-050); also called hIGF-1R-His10; hIGF-1R-His
Assay: SPR (Biacore 3000): IGF-1 titrated into 40 nM hIGF-1R-His, mixture injected over immobilized M13-C06
Protocol: Regeneration was achieved by three 10 μL injections of 0.1 M glycine, pH 2.0. 100% hIGF-1R-His binding to each antibody was determined by the signal above the baseline under mass transport-limiting conditions 60 seconds into the injection.

T1 sequence (P08069 other isoform, or with tags, fused parts or gaps): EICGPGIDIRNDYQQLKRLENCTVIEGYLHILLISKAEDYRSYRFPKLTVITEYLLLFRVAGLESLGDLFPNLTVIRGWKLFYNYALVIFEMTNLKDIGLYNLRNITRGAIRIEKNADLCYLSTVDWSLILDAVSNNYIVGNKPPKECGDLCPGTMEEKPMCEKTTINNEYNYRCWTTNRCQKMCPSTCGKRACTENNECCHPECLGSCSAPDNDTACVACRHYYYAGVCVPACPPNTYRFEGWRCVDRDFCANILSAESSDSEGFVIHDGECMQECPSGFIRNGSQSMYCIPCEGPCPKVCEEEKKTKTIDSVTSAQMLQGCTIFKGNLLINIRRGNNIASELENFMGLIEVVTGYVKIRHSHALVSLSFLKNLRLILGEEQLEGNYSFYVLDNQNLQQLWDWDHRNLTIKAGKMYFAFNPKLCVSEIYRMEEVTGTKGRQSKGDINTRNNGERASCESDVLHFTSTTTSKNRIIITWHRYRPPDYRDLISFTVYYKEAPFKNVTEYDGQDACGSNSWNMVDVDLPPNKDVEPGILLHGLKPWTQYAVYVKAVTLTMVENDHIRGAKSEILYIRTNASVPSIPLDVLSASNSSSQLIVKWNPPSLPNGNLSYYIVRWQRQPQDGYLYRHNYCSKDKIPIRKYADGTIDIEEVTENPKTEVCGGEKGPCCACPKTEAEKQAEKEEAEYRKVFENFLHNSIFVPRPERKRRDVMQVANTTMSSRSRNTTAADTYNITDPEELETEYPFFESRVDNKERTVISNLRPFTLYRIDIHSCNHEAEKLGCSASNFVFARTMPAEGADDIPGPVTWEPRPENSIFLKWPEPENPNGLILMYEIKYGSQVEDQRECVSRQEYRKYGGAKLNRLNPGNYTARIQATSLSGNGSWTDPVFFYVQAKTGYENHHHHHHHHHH

B1: human IGF-1 His (ligand)
chain: not shown
  IC50 (read off the curve): ~20 nM
